# According to the supplement of paper PMC3334620:
# Over roughly 33,000 sequences, “E-score (-0.5 to 0.5)” has its median near -0.01; the highest 2% begin near 0.26. This is one part of the list.
# Biological target: Ste12 (UniProt P13574)
# Assay: PBM E-score (8-mer binding enrichment) (E-score (-0.5 to 0.5)); higher = stronger / more preferred TF binding; most listed sequences are background and not binding sites
# Conditions: protein concentration: 200 nM; construct: GST-DNA-binding domain
# Procedure, shortened: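 The E-score, a modified Wilcoxon-Mann-Whitney statistic, was computed by the Universal PBM Analysis Suite for every ungapped eight-base word pooled with its reverse complement. Scans behind it were normalised with masliner after bound GST-tagged yeast transcription factors were detected with fluorescent anti-GST. The proteins, at about 100-200 nM, had been applied to universal all-10-mer Agilent arrays made double-stranded by primer extension.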
row,Sequence,PBM E-score
1,GCCCAGCA,-0.09
2,AGTGAGAG,-0.175
3,CAGAGACG,0.0192
4,GAAAGAAC,-0.00643
5,ACGGGGAC,0.0352
6,CGTTGACA,-0.263
7,AGCTTTAC,-0.1
8,AGGAAGAA,-0.0282
9,CTTGGCCA,-0.176
10,ACGTTTGA,0.178
11,CTTGGCAC,-0.0141
12,GCCAGAAC,0.0381
13,CGGGTAGC,-0.113
14,ATATAGCC,0.235
15,AGCTCGAC,-0.00751
16,CCCAGGCC,-0.109
17,ATTACCTA,-0.00035
18,AGTTATAG,0.0603
19,ATCTTCCA,-0.0869
20,GCGACTAA,-0.0174
21,CGGTTGTC,0.00291
22,ATATCTAC,0.0901
23,GCCTGTAA,-0.0964
24,ACGTGGTG,-0.109
25,TGTTTGAA,0.378

row,Sequence,PBM E-score
1,AGAATTCG,0.051
2,GGGGGTCA,-0.311
3,CGGGTGCC,-0.12
4,AGTTTTAC,0.143
5,CTTGACCA,-0.0197
6,CGCGTTGC,-0.0856
7,ATGGCACC,-0.0968
8,AAGTAGCG,-0.209
9,CGGTCAAG,-0.174
10,ACGCATCA,0.0363
11,CAGTTGAA,0.0474
12,ACTGTAAC,0.219
13,GGCCCCGA,-0.173
14,GAACCAGA,-0.128
15,AGATAGAG,0.03
16,CAAGTTCC,-0.13
17,AAAAGGGA,0.0721
18,AAACACTA,0.273
19,GTATACCA,0.0156
20,GTTCCGTA,-0.0307
21,ACTAGAAG,-0.143
22,AGGATGCG,-0.101
23,AAAAAGAT,0.271
24,AGGAAGTA,0.0853
25,CTCCCCGC,0.386

row,Sequence,PBM E-score
1,AACATGCG,0.211
2,CCTAACGA,0.0541
3,CGGCTAAA,0.17
4,GACGCGTC,-0.165
5,ACCGGAGA,-0.00556
6,GCCCTCAA,-0.23
7,CTGTCGTA,-0.0251
8,CGATATAC,-0.00426
9,GGTCCCTA,-0.0245
10,AACCCGAG,-0.0631
11,CTCGCCGC,-0.11
12,CGTAGAGA,-0.103
13,GGAAGCCC,-0.205
14,CTCTAGCC,-0.203
15,ATCCAGGC,-0.127
16,CGCGTTGA,-0.103
17,CCGAAGAC,0.0421
18,GTCTAAGA,-0.0187
19,GTAGGTTA,0.167
20,GCATCGGC,-0.0816
21,GGCGGAGA,-0.0569
22,CAATTCGC,0.0903
23,CTGGGTTC,-0.153
24,AGGAGACA,-0.0405
25,GTAAGAGA,0.0682

row,Sequence,PBM E-score
1,ACCTTTAT,-0.135
2,GCGTACCC,-0.129
3,CTTCTCAA,0.102
4,ACGTGCTA,-0.111
5,CACTGCGA,0.0261
6,ATCCACGC,-0.18
7,GTAATGAC,-0.0454
8,GTTTTACA,0.296
9,CTCTATTC,-0.136
10,GAACCTTA,0.16
11,AGGACCCG,-0.042
12,ATTTCGTG,0.0355
13,AGTAATGG,0.0346
14,ATGGTTGG,0.00556
15,GGGGAGGA,0.141
16,AAAACCGT,0.106
17,AGCTTCCT,-0.0998
18,AATCGGAA,0.155
19,CTTGTAAA,0.121
20,GCAGGGAA,0.153
21,CTTCTACA,0.0721
22,CGCCAACA,-0.0261
23,AAGTGCTC,-0.208
24,CTCAGTGA,-0.0146
25,GCTGTAGA,-0.0176

row,Sequence,PBM E-score
1,ACAATTCT,0.0706
2,ACCACCAA,0.00269
3,ATGTGAAA,0.202
4,GAGTATCA,-0.00514
5,TCGCATCA,0.149
6,CAGTAGTA,-0.0437
7,ATGATCAG,0.0759
8,GGGATCTA,-0.115
9,GGGTTCAC,-0.0147
10,ATGCTGTA,0.0544
11,GAGTATCC,-0.127
12,CATAGACC,0.0275
13,ATTTGTAA,0.288
14,CAGCCCTA,0.119
15,AATATATA,0.22
16,CTAACAGC,0.0148
17,TCGTCCCA,0.0202
18,ATAGCCGA,0.0627
19,AACGCAGT,-0.196
20,GGCTCCAC,-0.124
21,GCGAGGAA,0.00814
22,GCTCGAAC,-0.0502
23,AGTCAAGG,-0.139
24,ACACTTAC,0.13
25,TATGTTGA,0.153

row,Sequence,PBM E-score
1,CCAGGACA,-0.0867
2,GACGTCCA,0.0078
3,GATGGTCC,-0.173
4,ACGCAATA,0.116
5,AACGCCCG,0.0188
6,CATGAAGC,0.00731
7,ACGTTCTG,0.108
8,ACATTGCA,0.164
9,CCCCGAGG,-0.0728
10,CGGTTAGA,-0.0703
11,GGGCCGAA,-0.0272
12,AAACTTGT,0.248
13,CGATCTCA,0.0448
14,ATCCGCAT,-0.0405
15,CTAGAACC,-0.0989
16,AAGCAACA,-0.0738
17,CAGGGTGC,-0.133
18,CCGTCCGC,-0.102
19,GATGAGAA,-0.1
20,ATAAAGCG,0.162
21,AGTTCGCG,-0.00649
22,CGTACGTC,-0.182
23,GTACCATA,0.0067
24,AGAGGTTG,-0.036
25,AAATAGAC,-0.0352

row,Sequence,PBM E-score
1,GTCCAAAC,0.0248
2,ACTCACAC,-0.0757
3,AACAGAGG,0.0174
4,CGCCGAGA,-0.0805
5,CCCGCCAC,0.213
6,AAAGGGCG,0.069
7,TACGCCAA,0.0395
8,CTTCGTCA,0.0182
9,CGATACAC,0.0976
10,ACACTGAC,-0.06
11,ATAAATCC,2e-05
12,AACAAAGT,0.187
13,CCCGATTC,0.0925
14,ATTTGAAC,0.123
15,AATTTTCT,0.114
16,AACAGTCT,-0.249
17,GATCTAAC,0.126
18,AGTACTCC,-0.23
19,CGTCAGCA,-0.151
20,ACACGGGC,-0.142
21,AATATATG,0.143
22,ATCATTAA,0.298
